# According to PubChem BioAssay AID1963576 (National Center for Advancing Translational Sciences (NCATS), 2024):
# About 60 (0.1%) of roughly 46,000 compounds were called active. Another 3% or so got no clear call; they are omitted. Calls follow the shape of the dose curve; as a rule, active = well fitted inhibition curve with a large enough effect; inconclusive = small, poorly fitted or top-dose-only effect; inactive = no such curve, though single readings can be large or run the other way. Some of the results follow.
# Experiment: Primary qHTS assay for Inhibitors of ovarian cancer metastasis using an organotypic tumor microenvironment (TME) model. Also: nearly all actives have a fitted effect of over 65% in size.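 As to activity change, negative = inhibition: plate controls were DMSO wells for no effect and tomatine positive control wells for full effect.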
# Conditions: SKOV3ip1-GFP adhesion/invasion on 3D omental model, fluorescence; series mostly up to 45.8 µM; activity change, negative = inhibition: at the top concentration
# In short: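 A 3D layer of primary human omental fibroblasts, mesothelial cells, fibronectin and collagen I, grown 48 hr, received SKOV3ip1-GFP cells in serum-free medium plus compounds at 0.36-46 umol/L. After 2 hr RT and 16 hr 37 C, fixed adherent GFP cells were counted; normalized to DMSO and tomatine.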
Compound,"activity change, negative = inhibition",outcome
Cc1nn(C)c2c1c(C(F)(F)F)cc(=O)n2CC(=O)NCCC(C)C,inactive: 9.05%,–
Cc1cccc(-c2nc3scc(CCNS(=O)(=O)c4ccc(Oc5ccccc5)cc4)n3n2)c1,inactive: -22.7%,–
O=C(O)c1ccc(Nc2nc3ccccc3n3cnnc23)cc1,inactive: 6.88%,–
COc1ccc(C2CC(c3ccccc3)=NN2c2ccc(S(N)(=O)=O)cc2)cc1 (stereo not drawn),inactive: 11.2%,–
CCN(c1ccccc1C)S(=O)(=O)c1ccc(N2CCCCS2(=O)=O)cc1,–,inactive
O=C(CN1CCN(Cc2cccc(Cl)c2)C1=O)NCc1ccc(F)cc1,inactive: 13.2%,–
c1ccc(N2CCN(Cc3cccn3-c3nnc(N4CCN(C5CCCCC5)CC4)s3)CC2)cc1,–,inactive
CCc1ccc(-c2nn(CC(=O)NC3CCCCC3)c3c2cnc2ccc(C)cc23)cc1,–,inactive
CCc1ccccc1NS(=O)(=O)c1ccc2c(c1)CCN2C(=O)C1CC1,inactive: -4.44%,–
COc1ccc(OC)c2sc(N3CCN(C(=O)c4ccc5c(c4)CCCC5)CC3)nc12,inactive: 9.87%,–
CCC1CCc2nc3sc(C(=O)Nc4ccc(C)cc4)c(N)c3cc2C1 (stereo not drawn),inactive: -4.64%,–
CCCCCn1c(=O)[nH]c2cc(C(=O)NCc3ccc(Cl)cc3)ccc2c1=O,inactive: 45.2%,–
COc1ccccc1C(=O)NCCn1cc(SCc2ccc(C)cc2)c2ccccc21,–,inactive
COc1ccc(C2CC(=O)N(Cc3ccc(F)cc3)c3ccccc3S2)cc1OC (stereo not drawn),–,inactive
Cc1nn(-c2ccccc2)c(-n2cccc2)c1C(=O)NCCc1ccc(Cl)cc1,–,inactive
Cn1c(=O)c2cc(C(=O)NCCCN3CCN(c4cccc(Cl)c4)CC3)sc2c2ccccc21,inactive: 1.18%,–
CCOc1ccc(CCNC(=O)c2nn(-c3ccc(OC)c(Cl)c3)c(=O)c3c2c2ccccc2n3C)cc1OCC,inactive: 17.9%,–
CC(C)NC(=O)c1ccc(-n2c(-c3ccccc3)cc3c2CCCC3)cc1,inactive: 0.8%,–
CCc1ccc(NC(=O)CSc2nc(-c3ccccc3Cl)nc3c2Cc2c(CO)cnc(C)c2O3)cc1,inactive: -25.2%,–
COc1ccc(OCC(=O)Nc2ccc3c(c2)nc(CCNC(=O)c2ccco2)n3C)cc1,inactive: -26.8%,–
O=C(COc1ccc(Br)cc1Cl)Nc1ncn[nH]1,inactive: 13.4%,–
O=C(Nc1ccc(Br)cc1)c1ccc(F)c(S(=O)(=O)N2CCCc3ccccc32)c1,inactive: -0.767%,–
CC(C)Cn1c(=O)c2sccc2n2c(CCCC(=O)NCCc3ccc(Cl)cc3)nnc12,inactive: -3.71%,–
CCOC(=O)c1ccc(CN(Cc2ccc(Cl)cc2Cl)S(=O)(=O)c2ccc(F)c(C)c2)cc1,inactive: -9.15%,–

Compound,"activity change, negative = inhibition",outcome
CCc1ccc2nc(N(Cc3cccnc3)C(C)=O)sc2c1,–,inactive
COCCOc1ccc2c(c1)ncn2-c1ccc2cccc(N3CCC(N)CC3)c2n1,inactive: 4.73%,–
CCC(=O)N1CCc2cc(S(=O)(=O)NC(CC(C)C)C(=O)NCCc3cccc(C)c3)ccc21 (stereo not drawn),inactive: 6.72%,–
COc1cccc(NC(=O)CSCc2cc(=O)c3ccc(C)c(C)c3[nH]2)c1,inactive: 0.298%,–
Cc1ccc(NC(=O)CSc2nccn2Cc2ccco2)cc1Cl,inactive: -2.15%,–
O=c1ccc2cc(S(=O)(=O)NCc3ccc(Br)cc3)ccc2[nH]1,inactive: -26.3%,–
COc1ccc(OC)c(CNS(=O)(=O)c2ccc3[nH]c4c(c3c2)CCCCC4)c1,inactive: 14.4%,–
Cn1c(=O)c2c(n3c4ccccc4nc13)NC(=O)CC2c1cccc(F)c1 (stereo not drawn),inactive: 12.6%,–
O=C(CCCCn1c(=O)c2ccccc2n(Cc2ccccc2Cl)c1=O)NCc1ccc2c(c1)OCO2,inactive: -16.6%,–
Cc1cc(NC(=O)COCc2cc(-c3ccc(F)cc3)on2)ccc1Br,inactive: -6.95%,–
CCNc1ccc(-c2nc(-c3ccccn3)no2)cc1[N+](=O)[O-],inactive: -5.79%,–
Cc1ccc(C)c(NC(=O)N2CCC(CN3CCOCC3)CC2)c1,–,inactive
COc1cccc(N2CCN(C(=O)CCCn3c(=O)[nH]c4ccc(Br)cc4c3=O)CC2)c1,–,inactive
CC(C)Oc1cccc(C(=O)Nc2ccc3oc(-c4cccc(Cl)c4)nc3c2)c1,inactive: -2.75%,–
CCOc1ccc(CNC(=O)c2ccc3nc(CC)c(CC)nc3c2)cc1,–,inactive
CCOc1ccc(CCNS(=O)(=O)c2c(C)nc3scc(C)n3c2=O)cc1OCC,inactive: -13%,–
CCCn1c2ccccc2c2cnn(CC(=O)N3CCN(c4ccccc4F)CC3)c(=O)c21,inactive: 16.4%,–
CC(=O)N1CCCc2cc(S(=O)(=O)NCc3cccc(C)c3)ccc21,inactive: 9.46%,–
COc1ccc(CNC(=O)CCC2N=C3c4ccccc4N=C(SCc4cccc(F)c4)N3C2=O)cc1 (stereo not drawn),inactive: 6.36%,–
Cc1cc(C)n(-c2nc3ccccc3nc2Nc2ccc(Cl)cc2Cl)n1,–,inactive
CCn1c(=O)c2cc(C(=O)NCCCOC)sc2c2ccccc21,–,inactive
O=c1c2cnn(-c3ccc(F)cc3)c2ncn1Cc1cccc(Cl)c1,inactive: 3.46%,–
CCCN(CCC)C(=O)Cn1nnc2sc(-c3ccccc3)cc2c1=O,inactive: 4.3%,–
CC(C)Oc1ccc(CNS(=O)(=O)c2ccc3c(c2)C(C)(C)C(=O)N3C)cc1,–,inactive
